Test results taken from PMC4336329 (PLoS ONE, 2015).
The whole screen tested about 310,000 compounds, of which about 14,000 (4.5%) showed an effect of 50% or more. Effects have a minus sign here. The list shows a part of the results.

Each molecule was assayed against human ether-à-go-go-related gene (hERG) potassium channel (human, UniProt Q12809) (assay: primary screen, population patch clamp on CHO cells stably expressing hERG).
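Also: peak tail current of the secondary pulse compared with the same well before compound.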

Chain of human ether-à-go-go-related gene (hERG) potassium channel (Q12809 whole entry, looked up): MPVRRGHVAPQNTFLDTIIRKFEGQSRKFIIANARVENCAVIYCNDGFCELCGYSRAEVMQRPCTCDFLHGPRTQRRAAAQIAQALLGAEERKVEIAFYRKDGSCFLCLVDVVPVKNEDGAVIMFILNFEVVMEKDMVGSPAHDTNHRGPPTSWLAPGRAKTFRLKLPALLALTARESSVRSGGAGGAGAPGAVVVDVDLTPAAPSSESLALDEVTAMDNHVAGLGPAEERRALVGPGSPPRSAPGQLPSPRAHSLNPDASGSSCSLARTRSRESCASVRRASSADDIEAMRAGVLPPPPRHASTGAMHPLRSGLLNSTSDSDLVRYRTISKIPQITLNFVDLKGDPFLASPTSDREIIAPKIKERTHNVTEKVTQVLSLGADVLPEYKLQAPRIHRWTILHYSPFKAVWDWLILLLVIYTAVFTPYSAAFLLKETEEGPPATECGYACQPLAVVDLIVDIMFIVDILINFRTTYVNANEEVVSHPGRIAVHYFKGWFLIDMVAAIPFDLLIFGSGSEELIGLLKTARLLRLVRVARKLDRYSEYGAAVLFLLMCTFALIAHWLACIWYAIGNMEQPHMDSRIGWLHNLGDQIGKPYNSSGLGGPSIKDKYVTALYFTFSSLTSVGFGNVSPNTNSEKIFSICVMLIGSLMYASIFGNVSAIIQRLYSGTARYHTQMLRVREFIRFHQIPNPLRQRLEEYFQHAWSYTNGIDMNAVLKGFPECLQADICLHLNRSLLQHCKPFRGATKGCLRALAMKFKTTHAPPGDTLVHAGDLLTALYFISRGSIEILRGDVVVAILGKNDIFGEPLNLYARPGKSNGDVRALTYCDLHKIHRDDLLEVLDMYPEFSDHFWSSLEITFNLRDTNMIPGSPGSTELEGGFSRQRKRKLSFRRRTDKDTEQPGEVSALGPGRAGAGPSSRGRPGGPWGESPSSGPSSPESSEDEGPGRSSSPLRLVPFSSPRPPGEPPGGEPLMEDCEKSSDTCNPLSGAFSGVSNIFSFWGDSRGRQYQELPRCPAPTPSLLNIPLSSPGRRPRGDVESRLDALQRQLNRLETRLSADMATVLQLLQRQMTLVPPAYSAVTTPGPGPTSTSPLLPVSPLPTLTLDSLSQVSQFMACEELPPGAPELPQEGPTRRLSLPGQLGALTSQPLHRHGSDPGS

Compared with `N/C(=N\OC(=O)c1ccc2ccccc2c1)c1ccncc1`, `N/C(=N\OC(=O)CCCOc1ccc(Cl)cc1Cl)c1ccncc1` is higher in “hERG current change (%, negative = inhibition) at 10uM” value: -38.4% for the first, -28.5% for the second.

Going from `O=C(N/N=C/c1ccc(Cl)cc1)c1cc(-c2cccnc2)nc2ccccc12` to `O=C(NCc1ccc(Cl)cc1)c1ccc(CSc2nc3ccncc3[nH]2)cc1`, the “hERG current change (%, negative = inhibition) at 10uM” value rises from -1.68% to 20.4%.

Going from `COc1ccccc1C(=O)N/N=C(\C)c1ccc(NC(=O)Cc2ccccc2)cc1` to `Cc1ccccc1C(=O)Nc1ccccc1C(=O)N/N=C\c1ccco1`, the “hERG current change (%, negative = inhibition) at 10uM” value falls from 14.9% to 2.6%.

Going from `Cc1ccc(NC(=O)C2CCCO2)c(Br)c1` (stereo not shown) to `CC1CCCN(C(=O)Cc2ccc(F)cc2)C1` (stereo not shown), the “hERG current change (%, negative = inhibition) at 10uM” value rises from -0.0778% to 5.82%.

First: C=CCOc1cccc(CNn2nnnc2N)c1
Second: C=CCOc1ccc(/C=C(\C#N)C(=O)Nc2ccccn2)cc1
The “hERG current change (%, negative = inhibition) at 10uM” value of the first is higher: 19.4% for the first, 8.12% for the second.

Compared with `CC(=O)CC1OC(=O)C(Br)=C1NCc1ccccc1` (stereo not shown), `OCCNC(=S)NCc1ccccc1` is higher in “hERG current change (%, negative = inhibition) at 10uM” value: -9.26% for the first, 0.684% for the second.

Compared with `COc1ccc(COc2cc(-c3cccc(OC)c3)nc3ccc(NC(=O)c4ccccc4)cc23)cc1`, `COc1ccc(NC(=O)C(=O)NNC(=O)COc2ccc(OC)cc2)cc1` is lower in “hERG current change (%, negative = inhibition) at 10uM” value: 25.2% for the first, 18.7% for the second.

Compared with `CNC(=O)NCCN1CCCC1=O`, `Cc1ccn2c(=O)c(C(=O)NCCCN3CCCC3=O)c(O)nc2c1` is higher in “hERG current change (%, negative = inhibition) at 10uM” value: 7.98% for the first, 27.6% for the second.

First: CSCCC(NC(=O)COc1ccccc1)C(=O)N1CCCCC1 (stereo not shown)
Second: CC1Cc2ccccc2N1C(=O)CN1CCC(C(N)=O)CC1 (stereo not shown)
The “hERG current change (%, negative = inhibition) at 10uM” value of the first is higher: -11.8% for the first, -21.2% for the second.

First: Cc1ccc2nc3c(cc(C(=O)NCCc4ccccc4)c(=N)n3CCCN3CCOCC3)c(=O)n2c1
Second: COc1ccc(OC)c(CCNC(=O)Cn2nc(C)c3c(C)n(-c4ccccc4)nc3c2=O)c1
The “hERG current change (%, negative = inhibition) at 10uM” value of the first is lower: -80.6% for the first, 5% for the second.

First: CC(=O)N1CCN(CC(=O)Nc2c(Cl)cccc2Cl)CC1.O=C(O)C(=O)O
Second: Cc1ccc(CN2CCN(C(=O)c3ccncc3)CC2)cc1.O=C(O)C(=O)O
The “hERG current change (%, negative = inhibition) at 10uM” value of the first is higher: 3.57% for the first, -0.159% for the second.

Compared with `COc1cc(S(=O)(=O)N2CCN(c3ccccn3)CC2)ccc1Br`, `CN1CCN(C2=C(Cl)C(=O)N(Cc3ccccc3)C2=O)CC1` is lower in “hERG current change (%, negative = inhibition) at 10uM” value: -3.95% for the first, -31.8% for the second.

First: Brc1ccc(N=C(c2ccccc2)c2ccncc2)cc1
Second: CC(C)COC(=O)c1ccccc1OC(=O)c1ccncc1
The “hERG current change (%, negative = inhibition) at 10uM” value of the first is lower: 4.96% for the first, 5.1% for the second.

Going from `O=[N+]([O-])c1cc(/C=N/N2CCCCC2)ccc1Cl` to `O=c1c2ccccc2ncn1-c1ccc([N+](=O)[O-])cc1Cl`, the “hERG current change (%, negative = inhibition) at 10uM” value falls from 6.8% to -6.09%.

Going from `COC(=O)C1C(c2ccccc2)C(C(=O)O)C1c1ccccc1` (stereo not shown) to `N=C1C(c2ccccc2)=C(O)CN1c1ccccc1`, the “hERG current change (%, negative = inhibition) at 10uM” value falls from 25.3% to -1.59%.

Compared with `COc1ccccc1C(=O)NCCC(=O)NNC(=O)C1COc2ccccc2O1` (stereo not shown), `COc1ccc(OC)c(S(=O)(=O)Nc2ccccc2O)c1` is higher in “hERG current change (%, negative = inhibition) at 10uM” value: -4.55% for the first, 0.776% for the second.

Going from `CC(=O)c1ccc(N(C(=O)CNC(=O)c2ccco2)C(C(=O)NC2CCCC2)c2cccnc2)cc1` (stereo not shown) to `Cc1ccc(C(=O)C(OC(=O)CN2C(=O)c3ccccc3C2=O)c2ccccc2)cc1C` (stereo not shown), the “hERG current change (%, negative = inhibition) at 10uM” value rises from 5.51% to 11.5%.

Going from `CCn1nc(C)c(CN2CCCC(CNS(=O)(=O)c3ccc(OC)cc3)C2)c1C` (stereo not shown) to `Cc1ccc(OCC(=O)Nc2ccc(S(=O)(=O)Nc3cc(C)nc(C)n3)cc2)c(C)c1`, the “hERG current change (%, negative = inhibition) at 10uM” value falls from -14.7% to -21.2%.

First: O=C(CCN1C(=O)CSc2ccccc21)Nc1ccc(OC(F)(F)F)cc1
Second: COc1ccc(NC(=O)CSCC(=O)Oc2c(OC)cccc2OC)cc1
The “hERG current change (%, negative = inhibition) at 10uM” value of the first is lower: -31% for the first, -3.97% for the second.

Going from `O=C(NCc1ccco1)c1cnc2sccn2c1=O` to `O=C(Nc1ccccc1C(F)(F)F)c1cnccn1`, the “hERG current change (%, negative = inhibition) at 10uM” value rises from 7.4% to 15.8%.

Compared with `CCCCn1c(N)c(N(CC(C)C)C(=O)CN(C)S(=O)(=O)c2ccc(F)cc2)c(=O)[nH]c1=O`, `CCN(CC)CCNS(=O)(=O)c1ccc2[nH]cc(C(=O)O)c(=O)c2c1` is higher in “hERG current change (%, negative = inhibition) at 10uM” value: -13.5% for the first, 9.99% for the second.

First: O=C(O)C1CCN(C(=O)c2ccco2)CC1
Second: COc1cc(C2NC(=S)NC3=C2C(=O)CCC3)ccc1O (stereo not shown)
The “hERG current change (%, negative = inhibition) at 10uM” value of the first is lower: 9.94% for the first, 15.2% for the second.

Going from `COC(=O)C(C)n1cnc2c(nnn2-c2cccc(OC)c2)c1=O` (stereo not shown) to `Cc1cc(C(=O)CSc2nnc(N)s2)c(C)n1-c1c(C)n(C)n(-c2ccccc2)c1=O`, the “hERG current change (%, negative = inhibition) at 10uM” value falls from 9.89% to -2.2%.

Compared with `CC1(C)CCC[C@]2(C)C(CS(=O)c3ccccc3)=C(C=O)CC[C@@H]12` (stereo partly shown), `Cc1cc(SCC(=O)Nc2cccnc2Cl)nc2ccccc12` is higher in “hERG current change (%, negative = inhibition) at 10uM” value: -7.28% for the first, 7.39% for the second.

First: CSc1oc(-c2ccco2)nc1S(=O)(=O)c1ccccc1
Second: Cc1nc2ccccc2c(=O)n1-c1ccc(F)cc1F
The “hERG current change (%, negative = inhibition) at 10uM” value of the first is lower: 0.571% for the first, 3.52% for the second.

First: COc1cc(CNCCc2ccccc2)cc(Cl)c1OCc1ccccc1.Cl
Second: COc1ccc(C2CC(c3ccccc3)=NN2C(=O)COC(=O)c2nc3nccc(C)n3n2)cc1 (stereo not shown)
The “hERG current change (%, negative = inhibition) at 10uM” value of the first is lower: -18.7% for the first, 23.4% for the second.

First: c1cncc(-c2ccc3[nH]ccc3c2)c1
Second: Cc1ccc(NCc2nc3ccccc3n2C)cc1
The “hERG current change (%, negative = inhibition) at 10uM” value of the first is lower: -7.45% for the first, -5.49% for the second.

Compared with `N#C/C(=C\c1ccncc1)c1ccc(NC(N)=O)cc1`, `C=CCOc1ccc(CNc2ccc(NC(=O)CCC)cc2)cc1OCC` is lower in “hERG current change (%, negative = inhibition) at 10uM” value: 13.8% for the first, 4.6% for the second.

First: COc1ccccc1OC[C@H](O)CO
Second: Cc1cccc(-n2cnc(C(=O)NNC(=S)Nc3ccccc3)c2)n1
The “hERG current change (%, negative = inhibition) at 10uM” value of the first is higher: 24% for the first, 16.2% for the second.
